± gives the standard deviation of the averaged measurements. This is one part of the list.

For this assay, the system named is PfAP2-LT AP2 domain (GST-tagged). Briefly: gcPBM binding intensity (ln(normalized median fluorescence intensity)); higher = stronger DNA binding. Put shortly:
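For binding intensity, the highest Masliner-normalised natural-log median intensity across replicate spots of either probe orientation was taken. Protein bound to the array was stained with Alexa488 anti-GST antibody and scanned at 488 nm. The protein, GST-tagged P. falciparum DNA-binding domains from E. coli at about 25 μg on average, had been applied for 1 h to an Agilent 4 × 180k array of primer-extended double-stranded 36-bp intergenic genomic probes and negative controls.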
In the case of “TACTTATGTGCATACCTACACACTTACATATATATA [CACACA_site2975]”, the “gcPBM binding intensity (ln)” value came out at 9.07 ± 0.45.
Consider “GATGATGTTTATTTGTGTACATATTAATACTTAATA [XGTACX_site1902]”, for which the “gcPBM binding intensity (ln)” value was 8.88 ± 0.35.
To “TTTTCTTTTTTTTATTGTACTTATAAAAATAAATAA [XGTACX_site3498]” belongs 8.14 ± 0.52.
To “ATAAAATCAAAATATACACACAAGGGGGAAAATCAA [CACACA_site2809]” belongs 9.2 ± 0.45; to “GCATATATCAAATATCGTACATTTTTTAAATTAAAA [XGTACX_site3994]”, 8.4 ± 0.35; to “ATAGGACATGTATCCAGTACATATTTAAAAAAAATA [XGTACX_site88]”, 8.79 ± 0.6.
Regarding “TTTGTAAGTCTTTGTTGTACTCAATAGAATGAAGAA [XGTACX_site8930]”, the “gcPBM binding intensity (ln)” value turned out to be 8.29 ± 0.4.
To “GCATCCCTTTTTATGTGTACATACAAAGGCAATTAC [XGTACX_site6977]” belongs 8.99 ± 0.56.
To “AAAATATAAATCTAAGCATGCAAAAAAAATTTATAA [TGCATGCA_site1008]” belongs 8.84 ± 0.38; to “TATTGTTTTAAAGAGACATGCAATATATATTATTCC [TGCATGCA_site752]”, 8.51 ± 0.42.
As to “TAATATTATAGATAAACACACATACACATGTAAATA [CACACA_site7049]”, the “gcPBM binding intensity (ln)” value came out at 9.01 ± 0.29.
To “AAATGAAATTTGTATACACACAAATATATATATATA [CACACA_site836]” belongs 9.36 ± 0.31; to “TATAAGCAAAAACACACACACATATATATATATATA [CACACA_site3804]”, 10.2 ± 0.23; to “AATAATAATAGTAATATGTACATATATATATATATA [TGCATGCA_negctrl_site542]”, 9.515 ± 0.092.
To “TTATTTAAAAAAAAGTGTACCCATATATTATAAATC [XGTACX_site8374]” belongs 8.5 ± 0.51.
As for “AATTTATATTTTCGTAGTACGTATTTTATTCTTTTG [XGTACX_site4162]”, the figure is 8.97 ± 0.49.
Turning to “TATAAGGTGTCCTATACACACTCCAATAGATATATA [CACACA_site7066]”, the “gcPBM binding intensity (ln)” value was determined as 8.69 ± 0.45.
Regarding “CTGAACCCGTTATGGTGTACATAAAATAAGACACAG [XGTACX_site3484]”, the “gcPBM binding intensity (ln)” value was 8.89 ± 0.62.
To “ATTACATGCAATATATGTACGTAATATATATATATA [XGTACX_site2300]” belongs 9.16 ± 0.085.
As for “TAATCTTTCGTACATGTACACACAGAAAAAAAAAAA [CACACA_site8798]”, the figure is 8.86 ± 0.42.
To “TGCATGCATTATCATAGTACATATAATGTTGTATAA [XGTACX_site2775]” belongs 8.82 ± 0.4; to “ATTATTAAGTTTCACAAGAACATTGTTAACAATTTT [CACACA_negctrl_site1128]”, 8.62 ± 0.52.
“TATTAAGTATTTTACGTACACACTTATAAATGTACA [CACACA_site3885]”: the “gcPBM binding intensity (ln)” value worked out at 8.72 ± 0.42.
As for “AATAATCATGATCAAAGTACTTATGAATACCAAAAA [XGTACX_site2572]”, the figure is 8.97 ± 0.57.
As for “AAAAAAAAAAAGTACACACATACATATAAATATATA [CACACA_site1809]”, the figure is 9.04 ± 0.46; as for AAAGACGCAAAATTGGTGCGCTGCTTTTAGCATTTT, 8.89 ± 0.36; as for “ACAGAATATTTAATTCAACACACATACATATTTATT [CACACA_site8734]”, 8.92 ± 0.49.
As to “ATTTATATCCTTAAACGTACATTGTATTGTATTTTA [XGTACX_site6080]”, the “gcPBM binding intensity (ln)” value came out at 8.91 ± 0.52.
Consider “GAAAAAATTTTATGGTGTACTTTATTTATTTATATA [XGTACX_site6323]”, for which the “gcPBM binding intensity (ln)” value was 8.64 ± 0.45.
“GAAATATTTAGACACACACACAAACATATAAATATA [CACACA_site6980]”: the “gcPBM binding intensity (ln)” value came to 9.84 ± 0.35.
To “ATGTTGTGTATATATACACACATACATATATATATA [CACACA_site8461]” belongs 9.44 ± 0.2.
“GATTATATTATATATTAAATATAAATATGTATTATA [TGCATGCA_negctrl_site66]”: the “gcPBM binding intensity (ln)” value is 8.39 ± 0.47.
To “AATGGAAATGTAAAATGTACAGGACGCACACACATA [XGTACX_site7788]” belongs 9.57 ± 0.4; to “AAAAAAAATTAAAATAAATTAAAAAGTAATTATATA [GTGCAC_negctrl_site615]”, 8.22 ± 0.56; to “AATGAGAAGGACTGCACACTAAAATGGAAGGAGAAA [CACACA_site1575]”, 9.15 ± 0.45.
As for “ATATATAATATTTTTATTTTTATTTTTTTTTTATGA [TGCATGCA_negctrl_site577]”, the figure is 8.34 ± 0.49; as for “TACCATGTTCAAATTACACACATATAATGTAATATA [CACACA_site5150]”, 8.9 ± 0.33; as for “ATTAAGTTCAAATGTAGTACGTGTAAAAAAAAAAAA [XGTACX_site1578]”, 8.79 ± 0.42.
To “TTTATATATGTAAATGCACACATATGTGTATATACT [CACACA_site8493]” belongs 9.24 ± 0.45; to “AAAATAAATAAATAAATAAATATATATATATATATA [XGTACX_negctrl_site345]”, 9.16 ± 0.3; to “TATAGGTATATATTATGTACTTATAATTATATAGAT [XGTACX_site1912]”, 8.62 ± 0.43.
On to “TTATTACATGTTACTTAACACACATCTGGTGAAATA [CACACA_site7939]”, for which the “gcPBM binding intensity (ln)” value was found to be 8.88 ± 0.47.
For the sequence “GGAAAGACAGTTCACAGTACCCAGTAAACTCTACGG [XGTACX_site2557]”, the “gcPBM binding intensity (ln)” value was 8.93 ± 0.51.
As for “AAAATATAGTAATATATATATGTATATTATTTGTGG [CACACA_negctrl_site1590]”, the figure is 8.73 ± 0.47; as for “GGGTCAAGTAAGCTGTTCCTCTTTTTCTTTCTCACT [GTGCAC_negctrl_site473]”, 9.09 ± 0.5.
For the sequence “TGTCTTTAAATTTCTCAACACACAGTTATAAAAAAT [CACACA_site8930]”, the “gcPBM binding intensity (ln)” value amounted to 8.46 ± 0.42.
As for “TATAAATTTAAAATGACACACACTAATATTATTTAA [CACACA_site8334]”, the figure is 8.96 ± 0.36; as for “ATACGATTGAAACATTGTACATGAATATAAAAAAAT [XGTACX_site5704]”, 8.95 ± 0.42; as for “TTTATTTATAGACACACACACAAAAAAAAAAAAAAA [CACACA_site7280]”, 9.1 ± 0.42.
Regarding “TTGTATATATATGGAAAAATATATATATATATATAT [GTGCAC_negctrl_site591]”, the “gcPBM binding intensity (ln)” value amounted to 9.25 ± 0.45.
To “TTTTTTTTTTTTTTTATAAAAGATAATTTTTTTTTA [CACACA_negctrl_site133]” belongs 7.99 ± 0.4; to “CATTTATATTATAAATGTACAAAGTTCGTTTGTTCC [XGTACX_site1305]”, 8.7 ± 0.5; to “TCAAAGCACACATACACACACATATAGATTTATATA [CACACA_site6272]”, 9.73 ± 0.16.
To “TCTTCATAAAAATAAAGTACATTATATATATAAATA [XGTACX_site3775]” belongs 8.32 ± 0.5; to “TAAATAAATATATATTCACACACAAACATATATATA [CACACA_site9332]”, 9.2 ± 0.26.
As for TAAACGTTAGTATGTGTGCACATTAGTAATTTAAAA, the figure is 9.13 ± 0.44; as for “ATTAATATTATTAGAAGTACTAATAGTAGTATAACT [XGTACX_site1325]”, 8.69 ± 0.33; as for “TTTTTATTATTCTTAAGGATATAACAAAAAAGAAAA [XGTACX_negctrl_site584]”, 8.04 ± 0.36.
Regarding “TTCTAAAAAAATAAAATTATCAAGGTTTTTAAACGT [CACACA_negctrl_site308]”, the “gcPBM binding intensity (ln)” value was 8.37 ± 0.46.
As for “ACTCTTGATCTGAATGCACACAATAAATTATATAAA [CACACA_site1438]”, the “gcPBM binding intensity (ln)” value came out at 8.79 ± 0.33.
To “ATATATTATATATATTGTACATGTAAAATTTTAAAA [XGTACX_site7197]” belongs 8.79 ± 0.45; to “TATGTATTTAAATTAACACACATATGTGGTTAATAG [CACACA_site5697]”, 8.8 ± 0.31.
To “AAAAATTTGGCATACACACACACACCCACACCCACA [CACACA_site587]” belongs 10.03 ± 0.042; to “ACATATATATATATATATATATATATATCATTATGT [CACACA_negctrl_site724]”, 9.51 ± 0.26.
As for “ATTTAAAAAAAAAAAACACACATGTGAATAGAAAAG [CACACA_site3323]”, the figure is 8.94 ± 0.42; as for “TCTAAAAATAAGAACACACACATATAAGCATATAAA [CACACA_site2274]”, 9.29 ± 0.37.
For the sequence “AAAACGCTACATAATTGTACATGTAGAAATAAAAGC [XGTACX_site2895]”, the “gcPBM binding intensity (ln)” value came to 9.34 ± 0.4.
As for “TACTGCCTTCCATACCCACACACTTCCCATATATTT [CACACA_site2705]”, the figure is 9.21 ± 0.45; as for “AGTATAATAATATTTACACACGCATATGTTATATAT [CACACA_site1476]”, 9.25 ± 0.27.
As for “CATACAAATTAATATGTACACACAAATATATATATA [CACACA_site8605]”, the figure is 9.18 ± 0.32.
To “TTTTACAATAATAAGTAGATCTAAATAAAGATTTAA [GTGCAC_negctrl_site547]” belongs 8.38 ± 0.59; to “AGTAGTCTGGAGAAAAGTACATAGTATCTGGTAACC [XGTACX_site2024]”, 8.81 ± 0.58.
“TTCCAAAATTGCACATGTACAAAATTCTCCAATATG [XGTACX_site3419]”: the “gcPBM binding intensity (ln)” value was 8.68 ± 0.41.
To “TTTATATTATTTAATGAGAAATAATTATAAACAATT [TGCATGCA_negctrl_site65]” belongs 8.15 ± 0.36; to “TTTTTTTTTTTTTTTTGTACATATTTTAATTTGTTT [XGTACX_site6297]”, 8.46 ± 0.5; to “AAAAAAAAAAAATAATGTACATATGTATTTGAGAAA [XGTACX_site3572]”, 8.71 ± 0.55.
To “TATGTATATATATATATATATATATATATATATATA [TGCATGCA_negctrl_site491]” belongs 9.71 ± 0.13.
As for “ATGGCCACTGTGAAATGTACAAAAAAAAAATACAAT [XGTACX_site2874]”, the figure is 9.05 ± 0.61.
As for “TATGTGCACCCATGTACATGCGGACATATGTTATAT [TGCATGCA_site383]”, the “gcPBM binding intensity (ln)” value was determined as 9.04 ± 0.42.
“ATTTCCTTTTGTTTCAGTACATAATTTTTTTTTTTT [XGTACX_site4842]”: the “gcPBM binding intensity (ln)” value turned out to be 8.83 ± 0.45.
To “GTTAAATAATATATATGTACATACATAAGTGTTACT [XGTACX_site4778]” belongs 8.86 ± 0.4.
To “TTGCCCATTTAATTAACACACAAATATTTATATTCT [CACACA_site738]” belongs 8.96 ± 0.39; to “GATATTCATAGAAACACACATACAAATTATGTATAT [CACACA_site144]”, 8.94 ± 0.35; to “TAATTGTACGCCAATACACACAGAATTAAAATGTAG [CACACA_site4234]”, 9.04 ± 0.38.
For “TTTTTAAAGTTTTATACACACACCAAAATTATTCTA [CACACA_site600]”, the “gcPBM binding intensity (ln)” value is 8.81 ± 0.39.
As for “AAAAAAATACCATTCACACATATTCTTTTATTATTT [CACACA_site5113]”, the figure is 8.66 ± 0.49; as for “AAAAAAAAAAAGTTTACACACATTAATTTTACATAT [CACACA_site834]”, 8.93 ± 0.48.
As for “TTTCATAACAAAAAAGTGCAAAATAGCACGAACATT [GTGCAC_site9703]”, the figure is 8.93 ± 0.4.

The values above are taken from the supplement of paper PMC11417369.
